Laboratory results taken from publication PMC4336329 (PLoS ONE, 2015).
Hit rate of the full screen: of about 310,000 compounds, about 2,200 (0.71%) showed an effect of 50% or more. Effects have a minus sign here. Some of the results follow.

Target: human ether-à-go-go-related gene (hERG) potassium channel (human, UniProt Q12809)
Assay: primary screen, population patch clamp on CHO cells stably expressing hERG

human ether-à-go-go-related gene (hERG) potassium channel, sequence (Q12809 whole entry, looked up): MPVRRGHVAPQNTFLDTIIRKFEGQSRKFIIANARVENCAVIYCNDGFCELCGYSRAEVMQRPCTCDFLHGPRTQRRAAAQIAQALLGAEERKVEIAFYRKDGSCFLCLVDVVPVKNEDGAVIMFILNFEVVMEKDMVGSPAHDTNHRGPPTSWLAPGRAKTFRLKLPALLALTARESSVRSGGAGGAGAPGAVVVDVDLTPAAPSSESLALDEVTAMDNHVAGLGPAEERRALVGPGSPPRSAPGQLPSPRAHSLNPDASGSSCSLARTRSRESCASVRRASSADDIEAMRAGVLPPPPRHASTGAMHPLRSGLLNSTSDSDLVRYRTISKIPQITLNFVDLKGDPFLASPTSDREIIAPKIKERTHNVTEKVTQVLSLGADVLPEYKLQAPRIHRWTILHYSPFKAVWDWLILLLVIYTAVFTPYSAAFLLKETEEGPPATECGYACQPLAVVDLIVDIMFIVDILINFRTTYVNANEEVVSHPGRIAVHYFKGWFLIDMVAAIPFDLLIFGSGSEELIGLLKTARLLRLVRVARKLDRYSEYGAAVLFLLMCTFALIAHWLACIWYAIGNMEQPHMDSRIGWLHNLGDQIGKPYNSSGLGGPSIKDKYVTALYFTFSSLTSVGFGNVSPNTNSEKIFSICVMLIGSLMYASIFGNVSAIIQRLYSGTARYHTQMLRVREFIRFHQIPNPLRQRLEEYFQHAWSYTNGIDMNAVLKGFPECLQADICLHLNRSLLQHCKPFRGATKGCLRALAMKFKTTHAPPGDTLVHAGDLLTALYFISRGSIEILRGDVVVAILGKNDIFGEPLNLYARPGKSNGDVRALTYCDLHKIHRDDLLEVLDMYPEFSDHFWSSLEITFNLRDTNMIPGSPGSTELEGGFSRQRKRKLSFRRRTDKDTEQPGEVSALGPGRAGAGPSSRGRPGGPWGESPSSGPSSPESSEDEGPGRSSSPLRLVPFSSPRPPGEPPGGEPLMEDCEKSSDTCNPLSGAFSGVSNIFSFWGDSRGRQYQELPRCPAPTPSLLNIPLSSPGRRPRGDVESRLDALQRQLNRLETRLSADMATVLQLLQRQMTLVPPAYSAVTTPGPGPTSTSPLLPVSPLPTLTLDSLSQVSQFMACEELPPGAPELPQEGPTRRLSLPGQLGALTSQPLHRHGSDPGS

| SMILES | hERG current change (%, negative = inhibition) at 1uM [%] |
| --- | --- |
| N#Cc1c(-c2ccc(Cl)cc2)cc(-c2ccccc2)nc1SCC(=O)O | 9.85 |
| CC(C)Sc1nnc(CNC(=O)C23CC4CC(CC(C4)C2)C3)n1C1CCCCC1 | -0.429 |
| Cc1cc(Nc2nnnn2-c2ccccc2)n(-c2ccc(Cl)cc2)n1 | 9.18 |
| COc1cc(/C=N/NC(=O)CN2CCCCC2)ccc1OCc1ccccc1 | -37.7 |
| O=C(CCCCn1c(=O)c2ccccc2n(CC(=O)Nc2ccc(F)cc2)c1=O)NCc1ccco1 | 2.48 |
| CN(C)c1ccc(N/C(=N\S(=O)(=O)c2cccs2)c2ccccc2)cc1.Cl | 6.87 |
| COc1ccc(-c2nc(CNS(=O)(=O)c3ccc(OC)c(OC)c3)cs2)cc1 | -1.62 |
| Cc1ccc(CNC(=O)C2(C(F)(F)F)C/C(=C\Cc3ccccc3)CCCO2)o1 (stereo not drawn) | 13.2 |
| CCC(C)(C)NC(=O)C1CCN(c2nc(OC)nc(OC)n2)CC1 | 8.29 |
| CNC(=O)Oc1ccc2c(c1)[C@]1(C)CCN(C)C1N2C.O=C(O)c1ccccc1O (stereo partly drawn) | 11.3 |
| O=C(Cc1ccc(Cl)cc1)Nc1ccc(SC(F)F)cc1 | -1.45 |
| CN(C)CCN(C(=O)c1ccc2ccccc2c1)c1nc2c(F)cc(F)cc2s1.Cl | 13.7 |
| COc1ccccc1NC(=O)c1nnn(Cc2ccccc2)c1NC(=O)C(F)(F)F | -5.21 |
| Cc1ccc(OCC(=O)NCc2ccccc2)c([N+](=O)[O-])n1 | 9.74 |
| CCNC(=O)COC(=O)c1cc(S(=O)(=O)N2CCCCC2)ccc1C | 5.5 |
| Cc1[nH]ccc(=O)c1OCc1c(Cl)cccc1Cl | 10.2 |
| O=S(=O)(Nc1ccc(-n2cccc2)cc1)c1ccccc1 | 5.07 |
| CCOc1ccc(N2C(=O)CC(N3CCN(C(=O)CN4CCCC4)CC3)C2=O)cc1 (stereo not drawn) | 20.1 |
| COc1ccc(S(=O)(=O)N2CCSC2c2ccc(N)cc2)cc1 (stereo not drawn) | -2.49 |
| CCc1nnc(NC(=O)CSCc2cc(=O)n3nc(C(C)C)sc3n2)s1 | 7.52 |
| Cc1occc1C(=O)Nc1ccc(Br)cc1F | 4.2 |
| CC(=O)NN1C(=O)c2ccccc2NC1c1ccccc1 (stereo not drawn) | 17.6 |

| SMILES | hERG current change (%, negative = inhibition) at 1uM [%] |
| --- | --- |
| COC(=O)C(C)Oc1cc(C)ccc1COc1ccc(-n2nc(C)n(C(F)F)c2=O)cc1 (stereo not drawn) | 11 |
| Cc1cccc(Cn2c(N(C)Cc3ccccc3)nc3c2c(=O)[nH]c(=O)n3C)c1 | 8.04 |
| CC1CCCCC12NC(=O)N(CC(=O)N1CCN(S(=O)(=O)/C=C/c3ccccc3)CC1)C2=O (stereo not drawn) | 5.21 |
| Cc1cc(C)n(CCNC(=O)c2cc(COc3c(F)cccc3F)on2)n1 | 8.43 |
| Cc1ccc(C(=O)OCc2cn(-c3ccccc3)nn2)cc1 | 5.41 |
| COc1ccc(Cc2nc3ccc(C(=O)N(C)Cc4nccs4)cc3o2)cc1OC | 14.4 |
| O=C(Cn1cc2c(n1)CCCC2)N1CCCC1 | 8.36 |
| COc1cc2c(cc1OC)CN(C(=O)CNS(=O)(=O)c1ccc(C)c(C)c1)CC2 | 11.2 |
| CCOC(=O)Cn1nc(-c2ccc(F)cc2)cc(Cc2ccccc2)c1=O | 10.1 |
| COc1ccc(NC(=O)CSCC(=O)Nc2cccc3ncccc23)cc1 | 15.1 |
| Cc1cc(F)ccc1S(=O)(=O)N1CCCOC1CNC(=O)C(=O)NC1CCCC1 (stereo not drawn) | 1.93 |
| Cc1ccc(S(=O)(=O)N2CCN(C(=O)CN3CCOCC3)C2c2ccccc2)cc1 (stereo not drawn) | 8.45 |
| CCN(Cc1ccccc1)C(=O)c1ccc(SC)cc1OC | 15.4 |
| CCCCCC(=O)Nc1ccc(C(=O)COC(=O)c2ccccn2)cc1 | -2.64 |
| CC(=O)c1ccc(N2CCN(C(=O)c3cccc(Oc4ccccc4)c3)CC2)cc1 | 0.983 |
| O=C(CCN1CCCCC1)NCC(=O)Nc1ccc(Br)cc1C(=O)c1ccccc1 | -78.1 |
| C[C@@H](NC(=O)c1nc[nH]c1C(=O)NCc1ccccc1)c1ccccc1 | 15.8 |
| CC(C)c1ccc(/C=C(\NC(=O)c2ccccc2)C(=O)NCCCN2CCOCC2)cc1 | -35.8 |
| CC(C)[C@H](NC(=O)N1C[C@H]2C[C@@H](C1)c1cccc(=O)n1C2)C(=O)Nc1ccccc1F | 5.29 |
| CNC(=S)NNC(=O)c1ccccc1F | 15.9 |
| O=C(c1cc(-c2ccc(Cl)cc2Cl)on1)N1CCCC1 | 12.5 |
| NC(=O)c1ccc(C(=O)N/N=C/c2cccc(Oc3ccccc3)c2)cc1 | 14.9 |

| SMILES | hERG current change (%, negative = inhibition) at 1uM [%] |
| --- | --- |
| Cc1nc(SCc2cccc(Oc3ccccc3)c2)n[nH]1 | -3.95 |
| CCCCCN(C(=O)COC(=O)c1ccc(C)cc1)c1c(N)n(CCCC)c(=O)[nH]c1=O | 6.05 |
| O=S1(=O)CCOC[C@H](Cc2ccccc2)N1Cc1ccc(F)cc1 | 11.3 |
| CN(CCC1CCOCC1)C(=O)C1CCC(=O)N(CCc2cccc(F)c2)C1 (stereo not drawn) | 13.5 |
| CC(=O)Nc1ccc(Oc2ccc(NC(C)=O)c(NC(C)=O)c2)cc1 | 8.86 |
| Cc1cccn2c(=O)nc(SCC(=O)Nc3ccc4c(c3)OCCO4)nc12 | 17 |
| Cc1ccccc1-n1c(=O)c(C#N)cc2c(=O)n3ccccc3nc21 | -1.23 |
| Cc1ccc2cc(CCNC(=O)Cc3cccs3)c(=O)[nH]c2c1 | 7.37 |
| CCc1c(C)[nH]n(-c2ccc(Oc3ccccc3)c(S(=O)(=O)O)c2)c1=O | 18 |
| O=C(NC1CC1)c1cccc(S(=O)(=O)Nc2ccccc2F)c1 | 6.25 |
| Cc1ccc(CCN2CC(C(=O)NC3CCCCC3)CC2=O)cc1 (stereo not drawn) | -2.15 |
| COc1ccc(O)c(C(=O)/C=C/c2cc3ccccc3o2)c1 | 10.7 |
| Cc1ccccc1N/C(SCc1ccc(Cl)cc1)=C(/C#N)C(=O)NCc1ccco1 | 7.88 |
| COc1ccc2[nH]c(=O)c(CN(CCN3CCCC3)C(=O)Nc3ccccc3Cl)cc2c1 | 2.67 |
| Cc1ccc(NC(=S)NC(=O)c2ccc(-c3ccc(Cl)cc3)o2)c(O)c1 | 14.6 |
| CCN(CC)CCCNC(=O)c1ccc(C)c(NC(=O)C2=C(C)OCCS2)c1 | 10.9 |
| COc1ccc(CCNc2nc(-c3cccnc3)nc3ccccc23)cc1OC | 9.94 |
| COc1ccc(CN2CCC(Oc3ccc(C(=O)N4CCCC4)cc3)CC2)c(F)c1 | -22.8 |
| CNC(=O)c1cc2c(s1)-c1ccccc1CC2 | 3.26 |
| CCc1ccc(OCC(=O)NC(=S)Nc2ccc(Br)c(C)n2)cc1 | 4.44 |
| O=C(CSc1ccc(-c2cccnc2)nn1)Nc1ccccc1F | 5.21 |
| O=S(=O)(Nc1ccc(N2CCOCC2)cc1)c1c(F)cc(F)cc1Br | 14.2 |

| SMILES | hERG current change (%, negative = inhibition) at 1uM [%] |
| --- | --- |
| COc1cc(OC)c(-c2nnc3n(CCc4ccccc4)c(=O)c4ccccc4n23)cc1OC | 8.75 |
| COc1ccc(Cc2n[nH]c(=S)n2N)cc1OC | 12.1 |
| Cc1cccc(NC(=O)C(C)Oc2ccccc2C)n1 (stereo not drawn) | 6.51 |
| COc1ccc(/C=N/Nc2cc(C)nc(-n3nc(C)cc3C)n2)c(OC)c1 | 8.96 |
| CC1CC(C)CN(C2CCN(Cc3cccnc3)CC2)C1.O=C(O)C(=O)O (stereo not drawn) | 12.8 |
| Cc1cc(C(=O)COC(=O)CCc2nc3ccccc3c(=O)[nH]2)c(C)n1CC1CCCO1 (stereo not drawn) | 17.4 |
| Cc1ccc(S(=O)(=O)N(CC(=O)N=Nc2c(O)[nH]c3ccccc23)c2cccc(C)c2)cc1 | 1.25 |
| CCC(=O)Nc1ccccc1N1CCN(c2ccc(F)cc2)CC1 | 14.6 |
| Cc1ccc(S(=O)(=O)N(CC(O)CN2CCCCC2)c2ccccc2)cc1.Cl (stereo not drawn) | -60.5 |
| CC(=O)Nc1ccc(Cc2ccc3[nH]c(=O)cc(C)c3c2)cc1 | 7.97 |
| Cc1cc(-c2nn(C)c(=O)c3ccccc23)ccc1CNC(=O)NC1CCCCC1 | 6.86 |
| O=C(COC(=O)CCOc1ccccc1)NCCc1ccccc1 | 14.9 |
| CCc1nn(C(C)C(=O)N2CCN(Cc3ccccc3)CC2)c(=O)c2cc3occc3n12 (stereo not drawn) | -14.1 |
| CCOC(=O)C1(CCc2ccccc2)CCN(C(=O)C(C)n2cncn2)CC1 (stereo not drawn) | -6.83 |
| CCOC(=O)c1[nH]c(C)c(/C(O)=C2\C(=O)C(=O)N(CCCN3CCOCC3)C2c2cccs2)c1C (stereo not drawn) | 0.476 |
| COc1ccc(Cl)cc1NC(=S)NC1CCCC1 | 16.6 |
| C=CCn1c(CSc2ccccc2[N+](=O)[O-])n[nH]c1=S | 12.8 |
| O=c1nc(NC2CCCC2)ccn1Cc1cccc(Br)c1 | 1.11 |
| NC(=O)c1ccc2nc(-c3ccccc3)c(-c3ccccc3)nc2c1 | 2.37 |
| C=CCNC(=S)NC1CC(C)(C)NC(C)(C)C1 | -5.02 |
| CC(=O)Nc1ccc(S(=O)(=O)N2CCc3cc4c(cc3C2C)OCCCO4)cc1 (stereo not drawn) | 5.12 |
